{"source": "the supplement of paper PMC8728848", "binders": {"B1": {"name": "OGAN (protein)", "chain": "MVQKESQATLEERESELSSNPAASAGASLEPPAAPAPGEDNPAGAGGAAVAGAAGGARRFLCGVVEGFYGRPWVMEQRKELFRRLQKWELNTYLYAPKDDYKHRMFWREMYSVEEAEQLMTLISAAREYEIEFIYAISPGLDITFSNPKEVSTLKRKLDQVSQFGCRSFALLFNDIDHNMCAADKEVFSSFAHAQVSITNEIYQYLGEPETFLFCPTEYCGTFCYPNVSQSPYLRTVGEKLLPGIEVLWTGPKVVSKEIPVESIEEVSKIIKRAPVIWDNIHANDYDQKRLFLGPYKGRSTELIPRLKGVLTNPNCEFEANYVAIHTLATWYKSNMNGVRKDVVMTDSEDSTVSIQIKLENEGSDEDIETDVLYSPQMALKLALTEWLQEFGVPHQY"}}, "assay_in_all_cases": "glycan array binding signal (z-score within array); higher = stronger binding", "conditions_in_all_cases": "glycan notation: IUPAC condensed, linker removed", "key": {"Gal3S(b1-4)Glc": {"molecular_target": "Gal3S(b1-4)Glc", "method_in_brief": "(§1)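 Glycan array data came from 3228 arrays in the Consortium for Functional Glycomics database, and only arrays with an available protein sequence were kept. Glycan names were put into IUPAC-condensed notation, and columns mapping to the same glycan were averaged. The binding signal is a within-array Z-score, averaged across arrays of one protein sequence run at different concentrations or buffers and across linkers. A negative Z-score can be read as non-binding.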"}, "Gal3S(b1-4)Glc6S": {"molecular_target": "Gal3S(b1-4)Glc6S", "method_in_brief": "as §1"}, "Gal3S(b1-4)GlcNAc": {"molecular_target": "Gal3S(b1-4)GlcNAc", "method_in_brief": "as §1"}, "[1]": {"molecular_target": "Gal3S(b1-4)[Fuc(a1-3)]Glc6S", "method_in_brief": "as §1"}, "[2]": {"molecular_target": "Gal3S(b1-4)[Fuc(a1-3)]GlcNAc", "method_in_brief": "as §1"}, "[3]": {"molecular_target": "Gal3S(b1-4)[Fuc(a1-3)]GlcNAc6S", "method_in_brief": "as §1"}, "Gal3S4S(b1-4)GlcNAc": {"molecular_target": "Gal3S4S(b1-4)GlcNAc", "method_in_brief": "as §1"}, "Gal3S6S(b1-4)GlcNAc": {"molecular_target": "Gal3S6S(b1-4)GlcNAc", "method_in_brief": "as §1"}, "Gal3S6S(b1-4)GlcNAc6S": {"molecular_target": "Gal3S6S(b1-4)GlcNAc6S", "method_in_brief": "as §1"}, "Gal4S(b1-4)GlcNAc": {"molecular_target": "Gal4S(b1-4)GlcNAc", "method_in_brief": "as §1"}, "Gal4S6S(b1-4)GlcNAc": {"molecular_target": "Gal4S6S(b1-4)GlcNAc", "method_in_brief": "as §1"}, "Gal6P(b1-4)GlcNAc": {"molecular_target": "Gal6P(b1-4)GlcNAc", "method_in_brief": "as §1"}, "Gal6S(b1-3)GlcNAc": {"molecular_target": "Gal6S(b1-3)GlcNAc", "method_in_brief": "as §1"}, "Gal6S(b1-3)GlcNAc6S": {"molecular_target": "Gal6S(b1-3)GlcNAc6S", "method_in_brief": "as §1"}, "Gal6S(b1-4)Glc": {"molecular_target": "Gal6S(b1-4)Glc", "method_in_brief": "as §1"}, "Gal6S(b1-4)Glc6S": {"molecular_target": "Gal6S(b1-4)Glc6S", "method_in_brief": "as §1"}, "Gal6S(b1-4)GlcNAc": {"molecular_target": "Gal6S(b1-4)GlcNAc", "method_in_brief": "as §1"}, "Gal6S(b1-4)GlcNAc6S": {"molecular_target": "Gal6S(b1-4)GlcNAc6S", "method_in_brief": "as §1"}, "GalNAc(a1-3)Gal": {"molecular_target": "GalNAc(a1-3)Gal", "method_in_brief": "as §1"}, "GalNAc(a1-3)GalNAc": {"molecular_target": "GalNAc(a1-3)GalNAc", "method_in_brief": "as §1"}, "[4]": {"molecular_target": "GalNAc(a1-3)GalNAc(b1-3)Gal(a1-4)Gal(b1-4)Glc", "method_in_brief": "as §1"}, "[5]": {"molecular_target": "GalNAc(a1-3)GalNAc(b1-3)Gal(a1-4)Gal(b1-4)GlcNAc", "method_in_brief": "as §1"}, "GalNAc(b1-3)Gal": {"molecular_target": "GalNAc(b1-3)Gal", "method_in_brief": "as §1"}, "[6]": {"molecular_target": "GalNAc(b1-3)Gal(a1-4)Gal(b1-4)GlcNAc", "method_in_brief": "as §1"}, "[7]": {"molecular_target": "GalNAc(b1-3)Gal(a1-4)Gal(b1-4)GlcNAc(b1-3)Gal(b1-4)Glc", "method_in_brief": "as §1"}, "[8]": {"molecular_target": "GalNAc(b1-3)Gal(a1-6)Gal(b1-4)Glc", "method_in_brief": "as §1"}, "GalNAc(b1-3)GalNAc": {"molecular_target": "GalNAc(b1-3)GalNAc", "method_in_brief": "as §1"}, "GalNAc(b1-3)GlcNAc": {"molecular_target": "GalNAc(b1-3)GlcNAc", "method_in_brief": "as §1"}, "GalNAc(b1-4)Gal(b1-4)Glc": {"molecular_target": "GalNAc(b1-4)Gal(b1-4)Glc", "method_in_brief": "as §1"}, "GalNAc(b1-4)GlcNAc": {"molecular_target": "GalNAc(b1-4)GlcNAc", "method_in_brief": "as §1"}, "[9]": {"molecular_target": "GalNAc(b1-4)GlcNAc(b1-2)Man", "method_in_brief": "as §1"}, "[10]": {"molecular_target": "GalNAc(b1-4)GlcNAc(b1-2)Man(a1-3)[GalNAc(b1-4)GlcNAc(b1-2)Man(a1-6)]Man(b1-4)GlcNAc(b1-4)GlcNAc", "method_in_brief": "as §1"}, "[11]": {"molecular_target": "GalNAc(b1-4)GlcNAc(b1-3)GalNAc(b1-4)GlcNAc", "method_in_brief": "as §1"}, "GalNAc(b1-4)GlcNAc6S": {"molecular_target": "GalNAc(b1-4)GlcNAc6S", "method_in_brief": "as §1"}, "GalNAc(b1-6)GalNAc": {"molecular_target": "GalNAc(b1-6)GalNAc", "method_in_brief": "as §1"}, "GalNAc3S(b1-4)GlcNAc": {"molecular_target": "GalNAc3S(b1-4)GlcNAc", "method_in_brief": "as §1"}, "GalNAc3S(b1-4)GlcNAc3S": {"molecular_target": "GalNAc3S(b1-4)GlcNAc3S", "method_in_brief": "as §1"}, "[12]": {"molecular_target": "GalNAc3S(b1-4)[Fuc(a1-3)]GlcNAc", "method_in_brief": "as §1"}, "GalNAc4S6S(b1-4)GlcNAc": {"molecular_target": "GalNAc4S6S(b1-4)GlcNAc", "method_in_brief": "as §1"}, "GalNAc6S(b1-4)GlcNAc": {"molecular_target": "GalNAc6S(b1-4)GlcNAc", "method_in_brief": "as §1"}, "Glc(a1-4)Glc": {"molecular_target": "Glc(a1-4)Glc", "method_in_brief": "as §1"}, "[13]": {"molecular_target": "Glc(a1-4)Glc(a1-4)Glc(a1-4)Glc", "method_in_brief": "as §1"}, "Glc(a1-6)Glc(a1-6)Glc": {"molecular_target": "Glc(a1-6)Glc(a1-6)Glc", "method_in_brief": "as §1"}, "[14]": {"molecular_target": "Glc(a1-6)Glc(a1-6)Glc(a1-6)Glc", "method_in_brief": "as §1"}, "Glc(b1-4)Glc": {"molecular_target": "Glc(b1-4)Glc", "method_in_brief": "as §1"}}, "note": "Some of the results follow.", "data": [{"binder": "B1", "values": [{"measurement": "glycan array binding signal (z-score)", "setting": "Gal3S(b1-4)Glc", "value": -0.039}, {"measurement": "glycan array binding signal (z-score)", "setting": "Gal3S(b1-4)Glc6S", "value": -0.05}, {"measurement": "glycan array binding signal (z-score)", "setting": "Gal3S(b1-4)GlcNAc", "value": -0.067}, {"measurement": "glycan array binding signal (z-score)", "setting": "[1]", "value": 0.034}, {"measurement": "glycan array binding signal (z-score)", "setting": "[2]", "value": -0.06}, {"measurement": "glycan array binding signal (z-score)", "setting": "[3]", "value": -0.046}, {"measurement": "glycan array binding signal (z-score)", "setting": "Gal3S4S(b1-4)GlcNAc", "value": -0.052}, {"measurement": "glycan array binding signal (z-score)", "setting": "Gal3S6S(b1-4)GlcNAc", "value": -0.035}, {"measurement": "glycan array binding signal (z-score)", "setting": "Gal3S6S(b1-4)GlcNAc6S", "value": -0.017}, {"measurement": "glycan array binding signal (z-score)", "setting": "Gal4S(b1-4)GlcNAc", "value": -0.099}, {"measurement": "glycan array binding signal (z-score)", "setting": "Gal4S6S(b1-4)GlcNAc", "value": -0.03}, {"measurement": "glycan array binding signal (z-score)", "setting": "Gal6P(b1-4)GlcNAc", "value": -0.033}, {"measurement": "glycan array binding signal (z-score)", "setting": "Gal6S(b1-3)GlcNAc", "value": 0.014}, {"measurement": "glycan array binding signal (z-score)", "setting": "Gal6S(b1-3)GlcNAc6S", "value": -0.021}, {"measurement": "glycan array binding signal (z-score)", "setting": "Gal6S(b1-4)Glc", "value": -0.069}, {"measurement": "glycan array binding signal (z-score)", "setting": "Gal6S(b1-4)Glc6S", "value": -0.048}, {"measurement": "glycan array binding signal (z-score)", "setting": "Gal6S(b1-4)GlcNAc", "value": -0.057}, {"measurement": "glycan array binding signal (z-score)", "setting": "Gal6S(b1-4)GlcNAc6S", "value": -0.066}, {"measurement": "glycan array binding signal (z-score)", "setting": "GalNAc(a1-3)Gal", "value": -0.051}, {"measurement": "glycan array binding signal (z-score)", "setting": "GalNAc(a1-3)GalNAc", "value": -0.003}, {"measurement": "glycan array binding signal (z-score)", "setting": "[4]", "value": -0.085}, {"measurement": "glycan array binding signal (z-score)", "setting": "[5]", "value": -0.047}, {"measurement": "glycan array binding signal (z-score)", "setting": "GalNAc(b1-3)Gal", "value": -0.045}, {"measurement": "glycan array binding signal (z-score)", "setting": "[6]", "value": -0.044}, {"measurement": "glycan array binding signal (z-score)", "setting": "[7]", "value": -0.089}, {"measurement": "glycan array binding signal (z-score)", "setting": "[8]", "value": -0.058}, {"measurement": "glycan array binding signal (z-score)", "setting": "GalNAc(b1-3)GalNAc", "value": -0.059}, {"measurement": "glycan array binding signal (z-score)", "setting": "GalNAc(b1-3)GlcNAc", "value": -0.04}, {"measurement": "glycan array binding signal (z-score)", "setting": "GalNAc(b1-4)Gal(b1-4)Glc", "value": -0.035}, {"measurement": "glycan array binding signal (z-score)", "setting": "GalNAc(b1-4)GlcNAc", "value": -0.05}, {"measurement": "glycan array binding signal (z-score)", "setting": "[9]", "value": -0.049}, {"measurement": "glycan array binding signal (z-score)", "setting": "[10]", "value": -0.042}, {"measurement": "glycan array binding signal (z-score)", "setting": "[11]", "value": -0.024}, {"measurement": "glycan array binding signal (z-score)", "setting": "GalNAc(b1-4)GlcNAc6S", "value": -0.033}, {"measurement": "glycan array binding signal (z-score)", "setting": "GalNAc(b1-6)GalNAc", "value": -0.027}, {"measurement": "glycan array binding signal (z-score)", "setting": "GalNAc3S(b1-4)GlcNAc", "value": 0.005}, {"measurement": "glycan array binding signal (z-score)", "setting": "GalNAc3S(b1-4)GlcNAc3S", "value": -0.067}, {"measurement": "glycan array binding signal (z-score)", "setting": "[12]", "value": -0.082}, {"measurement": "glycan array binding signal (z-score)", "setting": "GalNAc4S6S(b1-4)GlcNAc", "value": -0.006}, {"measurement": "glycan array binding signal (z-score)", "setting": "GalNAc6S(b1-4)GlcNAc", "value": -0.056}, {"measurement": "glycan array binding signal (z-score)", "setting": "Glc(a1-4)Glc", "value": -0.053}, {"measurement": "glycan array binding signal (z-score)", "setting": "[13]", "value": 0.06}, {"measurement": "glycan array binding signal (z-score)", "setting": "Glc(a1-6)Glc(a1-6)Glc", "value": -0.103}, {"measurement": "glycan array binding signal (z-score)", "setting": "[14]", "value": -0.01}, {"measurement": "glycan array binding signal (z-score)", "setting": "Glc(b1-4)Glc", "value": -0.078}]}]}
